Source: the RNAGym collection of RNA variant scans (doi:10.1093/nar/gkz1192)
The source gives no read counts; variants with many changes may rest on few reads.

B1: CPEB3 Ribozyme (parent)
chain: UAACAGGGGGCCACAGCAGAAGCGUUCACGUCGCAGCCCCUGUCAGAUUCUGGUGAAUCUGCGAAUUCUGCUGUAUAUCUC

Variants of: B1
Assay: self-cleavage, relative activity (ratio to wild type); higher = more cleavage; in vitro, sequencing
Method in brief: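 For each CPEB3 ribozyme variant, relative activity is its cleaved/total read fraction divided by the unmutated ribozyme's. Barcoded error-prone PCR libraries were transcribed by T7 RNA polymerase (5 hours, 37°C) and held in DNase I for 15 min before an EDTA stop, with cleavage occurring throughout. Template-switching reverse transcription and Illumina sequencing were used to read the RNAs. A 5-read minimum applied, and results are the mean of three batches.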
CAACAGGUGGCCACAGCAGAAGCGCUCACGUCGCAGCCCCUGUCCGAUUCUGGUGGAUCAGCGAAUUCUGCUGUAUAUCUC showed a self-cleavage of 0.17. Work on CAACAGGGGACCACAGCAGAAGCGUUCACGUCGCAGCCCCUGUCAGAUUCUGGUGAAUCUGCGAAUUCUGCCGUAUAUCUC yielded a self-cleavage of 0.09. CAACAGGGUGCCACAGCAGCAGCGUUCACGUCGCGGCCCCUGUCAGAUUCUGGUGAAUCUGCCAAUUCUGCUGUACAUCUC gave a self-cleavage of 0.04. CAACAGGGGGCCACAGCAGAAACGUUCACGUCGCAACCCCUGCCAGAUUCUGGUGAAUCUGCGAAUUCUGCUGUAUAUCUC showed a self-cleavage of 0.25. With CAACAGGUGGGCACAGCAGAAGCGUUCACGUCGCGGCCCCUGUCAGACUCUGGUGAAUCUGCGAAUUCUGCUGUAUAUCCC the self-cleavage was 0.05. For CAACAGGGGGCCACAGCAAAAGUGUUCACGUCGCAGCCCCUGUCAGAUACUGGUGAAUCUGCGAAUUCUGCUGUAUAUCAC, the self-cleavage was 0.05. CAACAGGUGGCCACAGCAGGAGCGUUCGCGUCGCAGCCCCUGCCAGAUUCUGGUGAAUCCGCGAAUUCUGCUGUAUAUCUC showed a self-cleavage of 0.06. In the case of CAACAGGGGCCCACAGCAGAAGCGUUCACGACGCAGCCCCUGUCUGAUUCUGGUGAAUCUGCGAAAUCUGCUGAAAAUCUC, the self-cleavage is reported as 0.07. In the case of CAACAGGGGGCCACAUCAGAAGCGUUCACGUCGCAGCCCCUGUCAGAUUCUGGUGUAUCUGCGAAUUCUGCUGUAUAUCUC, the self-cleavage is reported as 0.09. For CAACAGGGGGCCACAGCAGAAACGUUCACGUCGCAGCCCCAGUCAGAUUCUGGCGAAUCUGCGAAUUCCGCUGUAUAUCUC, the self-cleavage was 0.07. Variant CAACAGGGGCCCACAGCAGAAGCGUUCACGCCGCAGCCCCUGUCAGAUUCUGGAGAAUCUGCGAAUUCUGCUGUAUAUCUC has a self-cleavage of 0.22. Work on CAACAGGAGGCCACAGCAGAAGCGUUCACGUCGCAGCCCCUGUCAGAUUCUGGUGAAUCUGCGAAUUCUGCUGUAUACCUC yielded a self-cleavage of 0.32. Variant CAACAGGGGACCACGGCAGAAGCGUUCACGUCGCAGCCCCCGCCAGAUUCUGGUGAAUCUGCGAAUUCUGCUGUAUAUCUC has a self-cleavage of 0.1. CAACAGGGGGCCACAGCAUAAGCGUUCACGUCGCCGCCCCUGUCAGAUUCUGGUGAAUCUGCGAAUUCCGCUGUAUAUCCC showed a self-cleavage of 0.06. Variant CAACAGCGGGCCACAGCAGAAGCGUUCACGUCGCGGCCCCUGUCAGAUUCUGGUGAAUCUGCGAAUUCUGCUGUAUAUCUC has a self-cleavage of 0.45. Variant CAACAGCGGGCCACAGCAGAAGCGUUCACGUCGCAGCCCCUGUCAGAUUCUGGUGGAUCUGCGAAUUCUGCUGUAUAUCUC has a self-cleavage of 0.06. For CAACAGGAGGCCACAGCAGUAGCGUUCACGUCGCAGCCCCUGUCAGAUUCUGGUGAAUCUGCGAAUUCUGCUGUAUAUCUC, the self-cleavage was 0.08. Work on CAACAUGGGGCCACAGCAGAAGCGUUCACGUCGCAGCCCCUGUCAGAUUCUGGUGAAACUGCGAACUCUGCUGUAUAUCCC yielded a self-cleavage of 0.06. With CAACAGGAGGCCACAGCAGAGGCGUUCACGUCGCAGCCCCUGUCAGAUUCUGGUGAAUCAGCGAAUCCUGCUGUAUACCUC the self-cleavage was 0.11. In the case of CAACAGGGGGCCACAGCAUAAGCGUUCACGCCGCAGCCCCUGUCAGAUUCUGGCGAAUCUGCGAGAUCUGCUGUAUAUCUC, the self-cleavage is reported as 0.04. Variant CAACAGGCGGCCAUAGCAGAAGCGUUCACGUCGCAGCCCCUGUCAGAUUCUGGUGAAUCUGCGAAUUCCGCAGUAUAUCUC has a self-cleavage of 0.05. Work on CAACAGGGGGCCACAUCAGAAGCGUUUACGUCGCAGCCCCUGUCAGAUUCUGGUGAAUCUGCGAAUCCUGCUGUAUGUCUC yielded a self-cleavage of 0.05. In the case of CAACAGGGGGCCACAGCAGAACCGUUCACGUCGCAGCCCCUGACAGAUCCCGGUGAAUCUGCGAAUUCUGCUGCAUAUCUC, the self-cleavage is reported as 0.07. In the case of CAACAGGCGGCCACAGCGGAGGCGUUCACGUCGCAGCCCCCGUCAGAUUCUGGUGAAUCCGCGAAUUCUGCUGUAUAUCCC, the self-cleavage is reported as 0.04. CAACAGAGGGCCACAGCAGAAGCGUUCACGUCGCAGCCCCUGUCAGAUUCUGGUGAAUCUGCGAAUUCUGCUGUAUGUCUC gave a self-cleavage of 0.23. Work on CAACAGGGUGCCACAGCAGAAGCGUUCACGUCGCAGCCUCAGUCAGAUUCAGGUGAAUCAGCGAAUUCUGCUGUAUAUCUC yielded a self-cleavage of 0.15. CAACAGGGGACCACAGCUGAAGCGUUCACGUCGCAGCCCCCGUCAGAUUCUGGUGAAUCUGCGGAUUCUGCUGUAUAUCAC gave a self-cleavage of 0.03. CAACAGGGUGCCACAGCAGAAGCGUUCACGUCGCAGCCCUUGUCAGAUUCUGGUGAAUCUGCGAAUUCUGCUUUAAAUCCC gave a self-cleavage of 0.05. Variant CAACAGGGUGCCACAGCGGAAGCGUUCACGUCGCAGCCCCUGUCAGGUCCUGGUGAAUCUGCGAAUUCUGCUGUAUCUCUC has a self-cleavage of 0.04. CAACAGCGGGCCACAGCAGAAGCGUUCACGUCGCAGCCCCUGCCAGAUUCUGGUGAAUCUGCGAAUUCUGCUGUAUAUCUC gave a self-cleavage of 0.34. For CAACAGGGGACCACAGCAGAAGCGUUCGCGUCGCAGCCCCUGUCAGAUUCUGGUGAAUCUGCGAAUUCCGCCGUAUAUCUC, the self-cleavage was 0.05. Work on CAACAGGGGACCACAGCAGAAGCGUUCAAGUCGCAGCCCCUGUCUGAUUCUGGUGAAUCUGCGAAUUCUGUUGUAUAUCUC yielded a self-cleavage of 0.05. CAACAGGAGGCCACAGCAGAAGCGUUCACGCCGCAGCCCCAGUCAGAUUCUGGUGAAUCUGCGAAUGCUGCUGUAUAUCUC showed a self-cleavage of 0.22. For CAACAGGGGACCACAGCAGAUGCGCUCACGUCGCAGCCCCUGUCAGAUUCUGGUGAAUCUGCGAAUUCUGCUGUAUUUCUC, the self-cleavage was 0.04. Variant CAACAGGGGACCGCAGCAGAAGCGUUCACGUCGCAGCCCAUGUCAGAUUCUGGUGAAUCUGCGAAUUCUGCUGUAUAUCUC has a self-cleavage of 0.04. For CAACAGAGGGCCACAGCAGAAGCGUUCGCGUCGCAGCCCCAGUCAGGUUCUGGUGAAUCUGCGAAUUCUGCUGUAUAUCCC, the self-cleavage was 0.04. CAACAGUGGGCCACAGCAGAAGGGUUCACGUCGCAGCCCCUGUCAGAUUCAGGUGAAUCUGCGGAUUCUGCAGUAUAUCUC showed a self-cleavage of 0.09. Variant CAACAGGGUGCUACAGCAGAAGCGUUCACGUCGCAGCCCCUGUCAGAUUCUGGUGAAUCAGCGAAUUCUGCUGUAUAUCUC has a self-cleavage of 0.05. CAACAGGGUGCCACAGCAGAAGCGUUCACGUCGCAGCCCCUGCCAGAUUCUGGUGAAUCUGCGAAUUCUGCCGUAUAUCUC gave a self-cleavage of 0.3. CAACAGGAGGCCACAGCAGAAGCGUUCACGUCGCAGCCCCUGUCAGAUUCUGGCGAAUCUGCGAAUUCUGCUGUAUAUCUC gave a self-cleavage of 0.06. Variant CAACAGGGGACCGCAGCAGAAGCGUUCACGUCGCAGCCCCUGUCAGAUUCUGGCGAAUCUGCGAAUCCUGCUGUAUAUCCC has a self-cleavage of 0.07. CAACAGUGGGCCACUGCAGAAGCGUUCACGUCGCAGCCCCUGUCAGAUUCUGGUGAAUCUGCGAAUUCUGCUGUAUAUCUC showed a self-cleavage of 0.34. Variant CAACAGGGGGCCACACCAGAAGCGUUCACGAAGCAGCCCCUGUCAGAUUCCGGUGAAUCUGCGAAUCCUGCUGUAUAUCUC has a self-cleavage of 0.12. Work on CAACAGGGGACCACCGCAGAAGCGGUCACGUCGCAGCCCCUGUCAGAUUCUGGUGCAUCUGCGAAUUCUGCUGUAUACCUC yielded a self-cleavage of 0.05. Variant CAACAGGAGGCCACAGCAGAAGCGUUCACGUCGCAGCCCCUGUCAGAUUCUGGUGAAUCUGCGAAUUCUGCCGCAUAUCUC has a self-cleavage of 0.45. CAACAGGGGGCCACAGCAUAAGCGUUCACGUCGCAGCCCCUGUCAGUUUCAGGUGAAUCUGCGAAUUCUGCUGUAUAUCUC gave a self-cleavage of 0.29. CAACAGAGGGCCACAGCAGAAGCGUUCACGUCGCAGCCCCUGUCAGAUUCUGGUGAAUCUGCGAAUUCUGCCGUAUAUCUC gave a self-cleavage of 0.35. Variant CAACAGCGGGCCUCAGCAGAAGCGUUCACGUCGCAGCCCCUGACAGAUUCUGGUGAAUCUGCGAAUUCUGACGUAUAUCUC has a self-cleavage of 0.15. Variant CAACAGGGGGCCACAACAGAAGCGUUCACGUCGCAGCCCCUGUCAGAUUCUGGUGUAUCUGCGAAUUCUGCUGUAUAUAUC has a self-cleavage of 0.26. Variant CAACAGGAGGCCACAGCGGAAGCGUUCACGUCGCAGCCCCUGUCAGAUUCUGGUGAAUCUGCUAAUUCUGCUGUAUAUCCC has a self-cleavage of 0.06. CAACAGGAGGCCACAGCAGAAGCGUUAACGUCGCAGCCCCUGUCAGAUCCUGGUGAAUCUGCGAAUUCUGCUGAAUAUCUC showed a self-cleavage of 0.11. CAACAGGGGACCACAGCAAAAGCGUUCACGUCGCUGCCCCUGUCAGAUUCUGGUGAAUCUGCGAAUUCUGCUGUAUAUCUC showed a self-cleavage of 0.21. With CAACAGGGGGCCACAACAGAAGCGAUCUCGUCGCAGCCCCUGUCAGAUUCAGGAGAAUCUGCGAAUUCUGCUGUAUAUCUC the self-cleavage was 0.05. CAACAGGGGGCCACAACAGAAGCGUUCACGACGCAGCAUCUGUCAGAUUCUGGUGAAUCUGCGAAUUCUGCUGUAUAUCUC showed a self-cleavage of 0.04. For CAACAGGGGGCCACAUCUGAAGCGUUCACGUCGCAGCCCCUGUCAGAUUCUGGUGAAUCUGCGAAUACUGCUGUAUAUCUC, the self-cleavage was 0.09. Work on CAACAGGGGUCCACAGCAGAAGCGUUCACGUCGCAGCCCUUGUCAGAUUCUGGUGAAUCUGCGAAUUCUGCUGCAUAUCUC yielded a self-cleavage of 0.24. CAACAGGCAGCCACAGCAGAAGCGUUCACGUCGCAGCCCCAGUCAGAUUCUGGUGAAUCUGCGAAUUCUGCUGUAUAUCUC gave a self-cleavage of 0.06. In the case of CAACAGGUGGCCACAGCAGUAGCGUUCACGUCGCAACCCCUGUCAGAUUCUGGUGAGUCUGCGAAUUCCGCUGUAUAUCUC, the self-cleavage is reported as 0.04. In the case of CAACAGGAGGCCACAGCAGGAGCGUUCACGUCGCAGCCCCUGUCAGAUUCUGGUGAGUCUGCGAAUUCCGCUGUAUAUCUC, the self-cleavage is reported as 0.09. CAACAGGGGGCCACAGCAGAAACGUUGACGUCGCAGCCCCUGUCAGAUUCUGGUGAGUCUGCGAAUUCUACUGUAUAACUC showed a self-cleavage of 0.04. In the case of CAACAGGUGGCCACAGCAGAGGCGUUCACGUCGCAGCCCCUGUCAGAUUCUGGUAAACCUGCGAAUUCUGCUGUAUAUCUC, the self-cleavage is reported as 0.03. In the case of CAACAGGGGACCACAGCAGAAGCGUUCACGUCGCAGCCCCUGUGAGAUUCUGGUGGAUCUGCAAAUUCUGCUGUAUAUCUC, the self-cleavage is reported as 0.16. In the case of CAACAGGGGCCCGCAGCAGAAGCGUUCACGUUGCAGCCCAUGUCAGAUUCAGGUGGAUCUGCGAAUUCUGCUGUAUAUCUC, the self-cleavage is reported as 0.05. In the case of CAACAGGGGACCACAGCAGAAGCGUUCACGUCGCAGCCCCUGUCAGAUUCUGGUGAAUCUGCGAAUUCUGCUGUCUAUCCC, the self-cleavage is reported as 0.31. Work on CAACAGGAGGCCACUGCAGAAGCGCUCACGUCGCAGCCACUGUCAGAUUCUGGUGAGUCCGCGAAUUCUGCUGUAUAUCUC yielded a self-cleavage of 0.03. CAACAGGUGGCCACAGCAGAAGUGUUCACGUCGCAGCCCCUGUCUGACACUGGUGAAUCUGCGAAUCCUGCUGUAUAUCUC gave a self-cleavage of 0.05. With CAACAGGAGGCCACAGCGGAAGCGUUCACGUCGCUGCCCCUGUCAGAUUCUGGUGAACCUGCGAAUUCUGCUGUAUAUCUC the self-cleavage was 0.21. For CAACAGGGGGCCACAGCAAAGGCGUUCACGUCGCAGCCCCAGUCAGAUACUGGCGAAUCUGCGGAUUCUGCUGUAUAUCUC, the self-cleavage was 0.05.
